# Whole data set: some 1,800 sequences, median “median log2 fold change of GCK-ALFA target abundance (FLAG IP / Myc IP barcode read proportion)” near 0.14, cut for the lowest 2% near -0.84. Some of the results follow.
# T1: TRAF2, Q12933
# T1 chain: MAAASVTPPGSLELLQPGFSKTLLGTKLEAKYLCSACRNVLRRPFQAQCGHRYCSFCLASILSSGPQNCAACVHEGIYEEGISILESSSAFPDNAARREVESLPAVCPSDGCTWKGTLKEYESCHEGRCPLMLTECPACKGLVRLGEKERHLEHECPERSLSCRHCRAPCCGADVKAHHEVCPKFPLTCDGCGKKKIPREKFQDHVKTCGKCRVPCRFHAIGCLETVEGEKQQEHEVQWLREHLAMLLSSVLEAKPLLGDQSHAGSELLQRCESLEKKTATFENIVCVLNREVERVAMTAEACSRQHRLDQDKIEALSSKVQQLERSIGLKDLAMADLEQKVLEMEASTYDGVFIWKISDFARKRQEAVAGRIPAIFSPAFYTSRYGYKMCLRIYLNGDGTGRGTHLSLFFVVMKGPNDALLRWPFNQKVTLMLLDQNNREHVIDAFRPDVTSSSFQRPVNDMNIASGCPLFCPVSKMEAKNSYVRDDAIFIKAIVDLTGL
# B1: traf2_out_6_3_2531 (protein)
# chain: DRESLLADARKVLENMGITTAAELQRLVEAEVRAIRQLISRPDVDRADLAGARSVIALARAMVEVAAETLPDFTPEQQARLQALLAEAEELVRRREEELA
# B2: traf2_out_1_15_927 (protein)
# chain: SSEEVKKEAEKLVKEAKEALEEAKANPDDKELLKEKLKKLEELKRKLIDLLNKTENDKETTNHVINALLEVEAYLAKVKALAYPEKKAAYEAKAKLWEEA
# B3: traf2_out_17_178_1695 (protein)
# chain: SKEEIRAKISELTDELIDLTDYYGTKLLEMVKKEGVLTPEEIAKLEAALKSGSNRTFLETAKEIIPKSNASEEIKELLKEFEKKYKELSKKIAEAYKEYE
# B4: traf2_out_18_117_1798 (protein)
# chain: SALEKAKEEFEKEAERFEEELREAQRVATQLIEKYPKQLPQEAMDAIVRFGELKRRFQELVQEAKANPNDLEKLKKIVEELKELTEEVREVRDELKKLLA
# B5: traf2_out_11_104_638 (protein)
# chain: LTREQAREFNDFAMAKEDEARAIAAALAATLAAAGETAAAARVNAALAHPGAGISTFRNLLEDLKPTLSPAAAAAADAAIAELDALQKEVSKKYNELEKE
# B6: traf2_out_13_95_1107 (protein)
# chain: SAETAKKIMEVADRMLEEVEALLQELLEKMKAAGKLEEEVQEALHLARYRSINEAIHKLRELAEKYPEFKEEYLATIERIEALRREAGREVAKILKEEKA
# B7: traf2_out_17_178_1714 (protein)
# chain: TKEEARKKISEATDKMIDLAEEAAARLLEIAEREGSLSPEELAELRRARRLGSARTTRALMERAIPRSPSAEEVQALLDEFNAEYARLSKIIAEELKKYE
# B8: traf2_out_5_63_2338 (protein)
# chain: SEREELTALAREADRAVRAILEALKAGKREEARKLVEEVAKDPELLRTAIGIARAELKYYSLQPEKKEEEKIAKELLKLLEEAAKRREEEERREREEALA
# B9: traf2_out_1_27_1016 (protein)
# chain: SDEELTELIKKTDKEIAEVSIEEAKEVVKEALKKAYELGREDAMVLARTLIASQLDEERREAITEAAVEAFKELGFPEEEIERLRRVAESSAELIRKAKA
# B10: traf2_out_20_38_2035 (protein)
# chain: SEEEEEEEKLEEIIEVANEAYDEYMAWIAERKAAGKTVEEIAEEAKEEVKELLSKVGLEEEAEILIEDIDRALSSPDAERLIARTLARAVALVKQKELNK
# B11: traf2_out_8_144_2537 (protein)
# chain: HMSRRELANELANALVELDELAKLADPETKEVLTKARRHIGQALNLVVFGGEREEIIKELEKAIEYLKEAAKLVADDPELKKRVQKVIEKVKEILKNVKE
# B12: traf2_out_6_3_2518 (protein)
# chain: MEESIRRDAAKVLENMGITTAEQLLRLVKANVNAVKKLVSRKDVDRADLAGAESVLNLTRAMVEVAAETLPDLTEEQKAEMLALIEEARELVEKKRKELE
# B13: traf2_out_20_3_2241 (protein)
# chain: SELEKELEKAFKELEKRLKELAPLLPPEDAARLKALLEEAKEAYKKDKSDALVKLSELRRALLALAERARAAGDEETAARLEEAADLANRAMQLIYKIIE
# B14: traf2_out_20_3_2167 (protein)
# chain: SELEEEAKEELAAALALLREAAALADPETAARLEALIAELRASESLSPSDRLVVVSRVRREVLELAQEARAAGRAELAALLEAAADELNELMQLLYQIIE
# B15: traf2_out_20_3_2182 (protein)
# chain: EELKKELEKELEKAEKLIKEAAKLADPETAKKLKELEKRLKESRKLSLEDQLVELSEIRRELLELAEKAKKEGKEELAKKLEEAADAINKAMNLVYKLIE
# B16: traf2_out_19_138_1960 (protein)
# chain: SAYQEVMDQAADVGNALRETVAALEALRAKAASGTPEEQAAAAAFTAAALAKIDAIRDERSKAVNAVLKDPSKAEEQLAKLKALLKEAEALLKEVKARLA
# B17: traf2_out_18_3_1916 (protein)
# chain: SEEERKKVSEEIDKIVDEATARARAALARLEAEHPAHAARAAALRADLDAGAGPFGLLEALAELAREAGDEALAAEIEAFLKKKRAEFQKLVDKYEELLK
# B18: traf2_out_17_162_1583 (protein)
# chain: SPLEEELAELEKELEELEKELKRLEEKSKKFKEMSKEELSDLLVEASEARRRALELAERLRELRPEIGEERATELIERAEEIAERFQKLANELYKEYLKK
# B19: traf2_out_15_48_1366 (protein)
# chain: DLEKYRKVASEVADRQLAKADEVAKELRKLRPEASPEVRPMLDAIIEAAEKGAPLSDLIGGLRAAAKKASPELAKKLNALAEELEAVRREASKRIAEAMK
# B20: traf2_out_13_95_1088 (protein)
# chain: SEELKQEINKIADEALDRVEAALAALAARLAGDPAVAAAVAAARDLARTQGISAAIHALRELAAAHPEHAEELNALIAELEAIRREAGRKVAELLKKEKE
# B21: traf2_out_17_162_1603 (protein)
# chain: SSLEKKKEELLKKKEELKEELKRLTEKLKNIEKLSKEELSDLLVEASEKKREALEALEKIEELKDELDPEEYEKLSTEFEELAEEFQRIANKFYKELEKK
# B22: traf2_out_1_27_985 (protein)
# chain: SDEEFRELLREADRKLATLSLEEKLELAREVLRRAHEMGPSDLPLAATVIAVSAKTEEEFEALLAAARETMEELGVSPEEIERILAQMRTAYRLTREALA
# B23: traf2_out_11_155_683 (protein)
# chain: EKERELNNELVDKVTAIADDLKAQVRAIAAEAAAARPEHAAEIEAALAAAAPYSWRTFAGTAAALFERLGLADAAARVRALLAQAQKEANKVVKEIEAKK
# B24: traf2_out_1_27_1002 (protein)
# chain: SDEEERELLREANRKIGEASPEEQIEIIKETLEKALKLGIESPIHIGVVLILSLGEKETREKAIKAAEEVLKKGGISEEEIELMKKRVESGWKRLEKLLK
# B25: traf2_out_13_95_1046 (protein)
# chain: SAETAERIMEVADEAEERALALLEEARARVADDPEASAVLDEALDLAEKRGLSEALHLLREARAADPAHAELFDALIAELEAIRREAGRRVAEILKEEEE
# B26: traf2_out_20_38_2042 (protein)
# chain: EEEEKEEEQIELDVEIANEALDEVEERFAKWRAEGLSLEEIAERVKEEIRKAFKEAGLEEKLPEYLEQIDLVRDSPDAERLLERILARALALVRRKKREK
# B27: traf2_out_18_117_1804 (protein)
# chain: SEIEEAKREFEEALKRFEEVRREAQRVLGQLIEKHPHALPQEVTDAAVEFGEAKRRAEELKLEAEENSEDLEKLKELVEEMKRLTEEMERILRRLRELLE
# B28: traf2_out_18_167_1857 (protein)
# chain: SEELQKEYDKVSDELVKLSEVKRAAQEALRLLAEDPEAFPAALARLIALLDENGELKEDAEALRAATPEALAATLEAVAERAQKLANEKYKKLEELRKEL
# B29: traf2_out_17_162_1563 (protein)
# chain: SPIEEEWEELKRELERLRKEVERLEKELENLENMSKEEITDKLVEASRVKREALLLAERARKLKPLIGEEEAQKLIEEAERIAERAQRIANKLYKALEEK
# Molecular target: T1, TRAF2, Q12933
# Test: median log2 fold change of GCK-ALFA target abundance (FLAG IP / Myc IP barcode read proportion) (log2 ratio); each designed protein is fused to an ALFA-tag nanobody in HEK293 cells to bring the named protein to FLAG-tagged glucokinase (GCK); Myc marks an untargeted standard; higher = target protein stabilised (more abundant)
# Conditions: target protein: 3xFLAG-MCP-GCK-ALFA reporter; HEK293 landing pad (RPLP)
# Outline: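 Sequencing of reverse-transcribed, amplified circular RNA barcodes from anti-FLAG and anti-Myc immunoprecipitates provided the readout for an ALFA-nanobody-fused binder library recombined into HEK293 landing-pad cells. Those cells were induced with 2 μg mL^−1 doxycycline, transfected with a plasmid expressing a FLAG-tagged target and a Myc-tagged standard, and lysed after 48 h. Target abundance is the per-binder median log2 ratio of FLAG to Myc barcode read proportions. Only barcodes at a proportion of ≥10^−7 in both replicates and binders with ≥3 barcodes per replicate were kept, with a 10^−6 pseudocount added before the two replicates were pooled.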
row,Binder,median log2 fold change
1,B1,-0.925
2,B2,0.163
3,B3,0.202
4,B4,0.299
5,B5,0.206
6,B6,-0.432
7,B7,0.0908
8,B8,0.165
9,B9,0.418
10,B10,-1.16
11,B11,0.181
12,B12,-0.905
13,B13,0.215
14,B14,0.342
15,B15,0.403
16,B16,0.184
17,B17,0.131
18,B18,0.152
19,B19,0.139
20,B20,-0.556
21,B21,0.253
22,B22,0.166
23,B23,0.118
24,B24,0.311
25,B25,0.0598
26,B26,-0.0369
27,B27,0.222
28,B28,0.218
29,B29,0.0431
